Assay [1] concerns human serum-derived γ-globulin. Description: Dynamic binding capacity (DBC) measurement on ligand-immobilized NHS-activated prepack column. Particulars: 1 mL column; 1 mg/mL γ-globulin at 1 mL/min; 10% breakthrough at 280 nm; equimolar ligand (7.3 mg protein or 0.5 mg peptide). The procedure:
To examine whether the IgG-binding peptide divalent fusion protein can be used as an affinity ligand for human antibody purification, the protein prepared in Example 2 (sfGFP-173 C-2Opt1 GS12) was immobilized on an NHS-activated prepack column (GE Healthcare), and the adsorption performance was evaluated. The protein-immobilized column was prepared by the following method. A syringe was used to feed the solution.
5 mL of 1 mM hydrochloric acid was fed to a NHS-activated prepack column with a volume of 1 mL to remove the isopropanol solution in the column. Then, 1 mL of a coupling solution (200 mM carbonate buffer, 500 mM sodium chloride, pH 8.3) containing 7.3 mg of an IgG-binding peptide fusion protein was fed and immobilized at room temperature for 1 hour. The unreacted NHS ester was blocked by adding tris-hydroxymethylaminomethane. Finally, 5 mL of an adsorption solution (20 mM phosphate buffer, 150 mM sodium chloride, pH 7.4) was fed and used for DBC measurement.
The DBC measurement was performed using a liquid chromatography instrument AKTAexplore (GE Healthcare). […] The DBC was determined from the amount of the sample fed until the value of an absorbance at 280 nm excluding the non-adsorbed component reached 10% of the absorbance of the entire sample. […]

Assay [2] deals with human IgG. As to the kind of experiment: Affinity measurement to IgG by surface plasmon resonance (BIAcore T200). The settings on record: ligand immobilized onto sensor chip, HBS-EP buffer pH 7.4. The class given is binding. The procedure:
The affinity analysis was performed by the following method. First, a solution containing equal amounts of 0.4 M EDC (1-ethyl-3-(3-dimethylaminopropyl)-carbodiimide) and 0.1 M sulfo-NHS (sulfo-N-hydroxysuccinimide)) was injected at a flow rate of […] onto a CMS sensor chip set in BIAcore T200 (GE healthcare), thereby activating the sensor chip. Then, under the condition of pH 5.5 (10 mM Na acetate), the purified protein (sfGFP-C-1Opt1) described above was immobilized onto the sensor chip. For the measurement, HBS-EP buffer (10 mM HEPES, 150 mM NaCl, 0.005% Tween 20, 3 mM EDTA, pH 7.4) was used, and the binding reaction was monitored by injecting 6.25, 12.5, 25, 50, 100, 200, and 400 nM human IgG for 180 seconds at a flow rate of […]. For measuring the dissociation reaction, only the buffer was injected for 600 seconds. The analysis of interaction parameters was performed using BIA evalution T100 software.
As Comparative Example 1, a scaffold protein (sfGFP having a His tag; DNA sequence: SEQ ID NO: 40, amino acid sequence: SEQ ID NO: 41) to which an IgG-binding peptide was not fused was expressed and purified in the same manner as in Example 1, and affinity was measured.
Proteins including two IgG-binding peptides, each consisting of the amino acid sequences represented by SEQ ID NO: 45, SEQ ID NO: 47, and SEQ ID NO: 49 (sfGFP-N C-2Opt1GS12 (DNA sequence: SEQ ID NO: 44), sfGFP-173 C-2Opt1 GS12 (DNA sequence: SEQ ID NO: 46), and sfGFP-173 C-2Opt1GS13 (DNA sequence: SEQ ID NO: 48)) were expressed and purified by the same method as in Example 1, and the affinity was measured.
As Comparative Example 2, the affinity measurement of the peptide (amino acid sequence: SEQ ID NO: 18) prepared by chemical synthesis was carried out in the same manner as in Example 1.
For orientation: Surface plasmon resonance follows binding to a sensor surface in real time, without labels.

B1: sfGFP-173 C2Opt1GSl2: sfGFP fusion protein including two IgG-binding peptides, amino acid sequence SEQ ID NO: 47; immobilized on column in Example 3 (protein)
chain: MRKGEELFTGVVPILVELDGDVNGHKFSVRGEGEGDATNGKLTLKFICTTGKLPVPWPTLVTTLTYGVQCFARYPDHMKQHDFFKSAMPEGYVQERTISFKDDGTYKTRAEVKFEGDTLVNRIELKGIDFKEDGNILGHKLEYNFNSHNVYITADKQKNGIKANFKIRHNVEGGGGSGGGGSGPDCAYHRGELVWCTFHGGGGSGGGGSDGSVQLADHYQQNTPIGDGPVLLPDNHYLSTQSVLSKDPN[left out - about 20 residues]GGGGSGGGGSGPDCAYHRGELVWCTFHGGGHHHHHH
The term kon denotes the rate constant with which the complex forms. Read a high kon as faster complex formation. Broadly, the koff is the first-order rate constant of dissociation. As usually defined, the Kd is the concentration at which binding is half-saturated. Lower therefore signals higher affinity. Turning to B1, the “DBC (dynamic binding capacity)” value in assay [1] is recorded as 8.9 mg/mL-column. The kon in assay [2] (6.25-400 nM human IgG injected 180 s) worked out at 310000 M⁻¹ s⁻¹. The same molecule yielded a koff in assay [2] (buffer only injected 600 s for dissociation) of 0.00054 s⁻¹. In assay [2] (human IgG as analyte), this molecule had a Kd of 1.8 nM.

Values taken from US11643474B2, “Peptide fusion protein” (KAGOSHIMA UNIVERSITY, priority 2018, dated 2023).
